{"source": "the supplement of paper PMC8728848", "binders": {"B1": {"name": "SCA (Schizophyllum commune) (protein)", "chain": "MGIDQGVYLITNAGSGTAATLKDGYVKGWERIKGKEQLNQLWFVKSVKTSASDPGYAAFNLATNKVLDLEKGLADRGTPILGWDYHEGDNQHWVIKKQADGKYYKIQSVKTQTFVDLNNGGKDNGTKIQGWVGSWDETNSHQRWVFNQFSATGSRIKSILDTHPKIHGKVIVEWPDRIYFTPDQYIFEAIWAKTGLADIKPRDPLFQSEAYEKVFKGWVVSRAQEIIKVDGFDILVGSLSLVEKSTQKIKVLDVSVRTSDDKSPDLSQIVFFDPESGRTLVDIPEGYEVNSVII"}}, "assay_in_all_cases": "glycan array binding signal (z-score within array); higher = stronger binding", "conditions_in_all_cases": "glycan notation: IUPAC condensed, linker removed", "key": {"[1]": {"target": "Gal(b1-4)GalNAc(a1-3)[Fuc(a1-2)]Gal(b1-4)GlcNAc", "procedure,_shortened": "(§1)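 The Consortium for Functional Glycomics database supplied 3228 glycan arrays, of which those lacking an available protein sequence were dropped. The binding signal, a within-array Z-score, was averaged across arrays of the same protein sequence and across linkers. Negative scores can be read as non-binding.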"}, "[2]": {"target": "Gal(b1-4)GalNAc(b1-3)[Fuc(a1-2)]Gal(b1-4)GlcNAc", "procedure,_shortened": "as §1"}, "[3]": {"target": "Gal(b1-4)Glc", "procedure,_shortened": "as §1"}, "[4]": {"target": "Gal(b1-4)Glc6S", "procedure,_shortened": "as §1"}, "[5]": {"target": "Gal(b1-4)GlcNAc", "procedure,_shortened": "as §1"}, "[6]": {"target": "Gal(b1-4)GlcNAc(a1-6)Gal(b1-4)GlcNAc", "procedure,_shortened": "as §1"}, "[7]": {"target": "Gal(b1-4)GlcNAc(b1-2)Man", "procedure,_shortened": "as §1"}, "[8]": {"target": "Gal(b1-4)GlcNAc(b1-2)Man(a1-3)Man(b1-4)GlcNAc(b1-4)GlcNAc", "procedure,_shortened": "as §1"}, "[9]": {"target": "Gal(b1-4)GlcNAc(b1-2)Man(a1-3)[Gal(b1-4)GlcNAc(b1-2)Man(a1-6)]Man(b1-4)GlcNAc(b1-4)GlcNAc", "procedure,_shortened": "as §1"}, "[10]": {"target": "Gal(b1-4)GlcNAc(b1-2)Man(a1-3)[Gal(b1-4)GlcNAc(b1-2)Man(a1-6)]Man(b1-4)GlcNAc(b1-4)[Fuc(a1-6)]GlcNAc", "procedure,_shortened": "as §1"}, "[11]": {"target": "Gal(b1-4)GlcNAc(b1-2)Man(a1-3)[Gal(b1-4)GlcNAc(b1-2)][GlcNAc(b1-4)]Man(b1-4)GlcNAc(b1-4)GlcNAc", "procedure,_shortened": "as §1"}, "[12]": {"target": "Gal(b1-4)GlcNAc(b1-2)Man(a1-3)[GlcNAc(b1-2)Man(a1-6)]Man(b1-4)GlcNAc(b1-4)GlcNAc", "procedure,_shortened": "as §1"}, "[13]": {"target": "Gal(b1-4)GlcNAc(b1-2)Man(a1-3)[Man(a1-6)]Man(b1-4)GlcNAc(b1-4)GlcNAc", "procedure,_shortened": "as §1"}, "[14]": {"target": "Gal(b1-4)GlcNAc(b1-2)Man(a1-6)Man(b1-4)GlcNAc(b1-4)GlcNAc", "procedure,_shortened": "as §1"}, "[15]": {"target": "Gal(b1-4)GlcNAc(b1-2)Man(a1-6)[GlcNAc(b1-2)Man(a1-3)]Man(b1-4)GlcNAc(b1-4)GlcNAc", "procedure,_shortened": "as §1"}, "[16]": {"target": "Gal(b1-4)GlcNAc(b1-2)Man(a1-6)[Man(a1-3)]Man(b1-4)GlcNAc(b1-4)GlcNAc", "procedure,_shortened": "as §1"}, "[17]": {"target": "Gal(b1-4)GlcNAc(b1-2)[Gal(b1-4)GlcNAc(b1-4)]Man(a1-3)[Gal(b1-4)GlcNAc(b1-2)Man(a1-6)]Man(b1-4)GlcNAc(b1-4)GlcNAc", "procedure,_shortened": "as §1"}, "[18]": {"target": "Gal(b1-4)GlcNAc(b1-2)[Gal(b1-4)GlcNAc(b1-4)]Man(a1-3)[Gal(b1-4)GlcNAc(b1-2)[Gal(b1-4)GlcNAc(b1-6)]Man(a1-6)]Man(b1-4)GlcNAc(b1-4)GlcNAc", "procedure,_shortened": "as §1"}, "[19]": {"target": "Gal(b1-4)GlcNAc(b1-2)[Gal(b1-4)GlcNAc(b1-4)]Man(a1-3)[GlcNAc(b1-4)][Gal(b1-4)GlcNAc(b1-2)Man(a1-6)]Man(b1-4)GlcNAc(b1-4)GlcNAc", "procedure,_shortened": "as §1"}, "[20]": {"target": "Gal(b1-4)GlcNAc(b1-2)[Gal(b1-4)GlcNAc(b1-4)]Man(a1-3)[GlcNAc(b1-4)][Gal(b1-4)GlcNAc(b1-2)[Gal(b1-4)GlcNAc(b1-6)]Man(a1-6)]Man(b1-4)GlcNAc(b1-4)GlcNAc", "procedure,_shortened": "as §1"}, "[21]": {"target": "Gal(b1-4)GlcNAc(b1-2)[Gal(b1-4)GlcNAc(b1-6)]Man(a1-6)[Gal(b1-4)GlcNAc(b1-2)Man(a1-3)]Man(b1-4)GlcNAc(b1-4)GlcNAc", "procedure,_shortened": "as §1"}, "[22]": {"target": "Gal(b1-4)GlcNAc(b1-2)[Gal(b1-4)GlcNAc(b1-6)]Man(a1-6)[GlcNAc(b1-4)][Gal(b1-4)GlcNAc(b1-2)Man(a1-3)]Man(b1-4)GlcNAc(b1-4)GlcNAc", "procedure,_shortened": "as §1"}, "[23]": {"target": "Gal(b1-4)GlcNAc(b1-3)Gal(b1-3)GlcNAc", "procedure,_shortened": "as §1"}, "[24]": {"target": "Gal(b1-4)GlcNAc(b1-3)Gal(b1-4)Glc", "procedure,_shortened": "as §1"}, "[25]": {"target": "Gal(b1-4)GlcNAc(b1-3)Gal(b1-4)GlcNAc", "procedure,_shortened": "as §1"}, "[26]": {"target": "Gal(b1-4)GlcNAc(b1-3)Gal(b1-4)GlcNAc(b1-3)Gal(b1-4)GlcNAc", "procedure,_shortened": "as §1"}, "[27]": {"target": "Gal(b1-4)GlcNAc(b1-3)Gal(b1-4)[Fuc(a1-3)GlcNAc(b1-6)]Gal(b1-4)Glc", "procedure,_shortened": "as §1"}, "[28]": {"target": "Gal(b1-4)GlcNAc(b1-3)Gal(b1-4)[Fuc(a1-3)]GlcNAc(b1-3)Gal(b1-4)[Fuc(a1-3)]GlcNAc", "procedure,_shortened": "as §1"}, "[29]": {"target": "Gal(b1-4)GlcNAc(b1-3)GalNAc", "procedure,_shortened": "as §1"}, "[30]": {"target": "Gal(b1-4)GlcNAc(b1-3)[Gal(b1-4)GlcNAc(b1-6)]Gal(b1-4)GlcNAc", "procedure,_shortened": "as §1"}, "[31]": {"target": "Gal(b1-4)GlcNAc(b1-3)[Gal(b1-4)GlcNAc(b1-6)]GalNAc", "procedure,_shortened": "as §1"}, "[32]": {"target": "Gal(b1-4)GlcNAc(b1-3)[GlcNAc(b1-6)]Gal(b1-4)GlcNAc", "procedure,_shortened": "as §1"}, "[33]": {"target": "Gal(b1-4)GlcNAc(b1-6)Gal(b1-4)GlcNAc", "procedure,_shortened": "as §1"}, "[34]": {"target": "Gal(b1-4)GlcNAc(b1-6)GalNAc", "procedure,_shortened": "as §1"}, "[35]": {"target": "Gal(b1-4)GlcNAc(b1-6)[Gal(b1-3)]GalNAc", "procedure,_shortened": "as §1"}, "[36]": {"target": "Gal(b1-6)Gal", "procedure,_shortened": "as §1"}, "[37]": {"target": "Gal3S(b1-3)GalNAc", "procedure,_shortened": "as §1"}, "[38]": {"target": "Gal3S(b1-3)GlcNAc", "procedure,_shortened": "as §1"}}, "note": "The list shows a part of the results."}
{"binder": "B1", "values": [{"measurement": "glycan array binding signal (z-score)", "setting": "[1]", "value": -0.157}, {"measurement": "glycan array binding signal (z-score)", "setting": "[2]", "value": -0.163}, {"measurement": "glycan array binding signal (z-score)", "setting": "[3]", "value": -0.161}, {"measurement": "glycan array binding signal (z-score)", "setting": "[4]", "value": -0.156}, {"measurement": "glycan array binding signal (z-score)", "setting": "[5]", "value": -0.159}, {"measurement": "glycan array binding signal (z-score)", "setting": "[6]", "value": -0.05}, {"measurement": "glycan array binding signal (z-score)", "setting": "[7]", "value": -0.162}, {"measurement": "glycan array binding signal (z-score)", "setting": "[8]", "value": -0.157}, {"measurement": "glycan array binding signal (z-score)", "setting": "[9]", "value": -0.13}, {"measurement": "glycan array binding signal (z-score)", "setting": "[10]", "value": -0.162}, {"measurement": "glycan array binding signal (z-score)", "setting": "[11]", "value": -0.151}, {"measurement": "glycan array binding signal (z-score)", "setting": "[12]", "value": -0.158}, {"measurement": "glycan array binding signal (z-score)", "setting": "[13]", "value": -0.158}, {"measurement": "glycan array binding signal (z-score)", "setting": "[14]", "value": -0.159}, {"measurement": "glycan array binding signal (z-score)", "setting": "[15]", "value": -0.142}, {"measurement": "glycan array binding signal (z-score)", "setting": "[16]", "value": -0.161}, {"measurement": "glycan array binding signal (z-score)", "setting": "[17]", "value": -0.097}, {"measurement": "glycan array binding signal (z-score)", "setting": "[18]", "value": 0.585}, {"measurement": "glycan array binding signal (z-score)", "setting": "[19]", "value": -0.15}, {"measurement": "glycan array binding signal (z-score)", "setting": "[20]", "value": 0.172}, {"measurement": "glycan array binding signal (z-score)", "setting": "[21]", "value": 0.05}, {"measurement": "glycan array binding signal (z-score)", "setting": "[22]", "value": -0.134}, {"measurement": "glycan array binding signal (z-score)", "setting": "[23]", "value": -0.161}, {"measurement": "glycan array binding signal (z-score)", "setting": "[24]", "value": -0.16}, {"measurement": "glycan array binding signal (z-score)", "setting": "[25]", "value": -0.163}, {"measurement": "glycan array binding signal (z-score)", "setting": "[26]", "value": -0.12}, {"measurement": "glycan array binding signal (z-score)", "setting": "[27]", "value": -0.156}, {"measurement": "glycan array binding signal (z-score)", "setting": "[28]", "value": -0.154}, {"measurement": "glycan array binding signal (z-score)", "setting": "[29]", "value": -0.159}, {"measurement": "glycan array binding signal (z-score)", "setting": "[30]", "value": -0.048}, {"measurement": "glycan array binding signal (z-score)", "setting": "[31]", "value": -0.124}, {"measurement": "glycan array binding signal (z-score)", "setting": "[32]", "value": -0.159}, {"measurement": "glycan array binding signal (z-score)", "setting": "[33]", "value": -0.162}, {"measurement": "glycan array binding signal (z-score)", "setting": "[34]", "value": -0.148}, {"measurement": "glycan array binding signal (z-score)", "setting": "[35]", "value": -0.144}, {"measurement": "glycan array binding signal (z-score)", "setting": "[36]", "value": -0.162}, {"measurement": "glycan array binding signal (z-score)", "setting": "[37]", "value": -0.159}, {"measurement": "glycan array binding signal (z-score)", "setting": "[38]", "value": -0.162}]}
